Values marked as one replicate rest on one cluster of the flow cell; about a third of the high ones do not repeat.
Test system: ATP
Experiment: switch fluorescence ratio, 500 uM ATP over buffer (Cy3 cluster intensity, sum of 5 cycles each) (fold (ratio)); higher = stronger signal-on switching upon ATP binding; sequences stand for … in TCGTCGGCAGCGTCAGATGTGTATAAGAGACAGTTTTTTTTTTTTTTTTTTTTTTTTT…TC
Settings: aptamer strand: ATP DNA aptamer (quencher-CACCTGGGGGAGTATTGCGGAGGAAGG + anchor), 100 nM annealed; ATP concentration: 500 uM; one replicate
Procedure, shortened: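 Clusters carrying Cy3-labelled switching strands on a modified Illumina MiSeq flow-cell were annealed to 100 nM quencher-labelled ATP aptamer and imaged in selection buffer. They were imaged again after 15 min with 500 uM ATP at 22 °C, over five buffer/ATP cycles with NaOH stripping and re-annealing in between. For each cluster, the fluorescence ratio is the summed Cy3 intensity of the target cycles divided by that of the buffer cycles, averaged per switch-domain sequence. Clusters outside 100-1000 RFU were left out.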
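Note: ATP exposure 15 min at 22 °C before imaging.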

Row | Sequence | switch fluorescence ratio
1 | CGCGCTTTGG | 1.04
2 | CGTCGCTGGC | 1.44
3 | GTTCTTAGAA | 1.17
4 | CCGGTTGAAA | 1.13
5 | ACTCTTGGG | 0.99
6 | GTGGGTACTT | 1.03
7 | ATCATTCTAT | 0.987
8 | TGCATGTATA | 1.03
9 | CTTGTGAAGT | 0.999
10 | GTGACTCTCA | 0.99
11 | ATCGAAAATC | 1.03
12 | TCTTTTGGCC | 1.03
13 | GAAACCTAAT | 1.03
14 | CCAGAGAGGT | 1.02
15 | GGGCTATAGT | 1.02
16 | GTTTATCCGC | 1.39
17 | GAGACCCTCG | 0.97
18 | AGTGTGGATC | 0.948
19 | CAGCTGCTAA | 1.12
20 | GGTGTGGTTT | 1
21 | TTCAAATCTA | 1.03
22 | GCAGCCATGG | 1.05
23 | CTATATTCTA | 0.98

Row | Sequence | switch fluorescence ratio
24 | TAGTTACGGA | 1.07
25 | ATTTACTAGG | 1.01
26 | TTTCGTGTCG | 1
27 | TGGCATATGA | 1.05
28 | CCAACACATT | 1.09
29 | TATTAGGTTC | 0.994
30 | TGTCGGCTTA | 1.04
31 | TCGGGATCAG | 0.974
32 | TAACTCCGAA | 1.8
33 | CGGGGTCGAT | 1.03
34 | CGGCTGAAGA | 0.961
35 | GTAGGAGAAC | 0.997
36 | TCTCGTAAGA | 1.05
37 | ATTCATATTT | 1.01
38 | GATCGTTCAC | 1.01
39 | CGGTTTTGAA | 1
40 | TAGGGCAATG | 1.05
41 | TTAGAGCATG | 0.996
42 | CGACAACTGG | 0.958
43 | TCAGAAGATA | 1.05
44 | CCGTATTCCG | 1.13
45 | TGTATGCTAG | 0.973
46 | TAGATTGCGG | 1.04

Row | Sequence | switch fluorescence ratio
47 | AGGCGGTTAG | 1.07
48 | GCGGGCTAAA | 0.996
49 | CAATGGCACC | 1.05
50 | CGGTTATCTT | 1.03
51 | AACTACGCT | 1.27
52 | AATTGGAATT | 0.939
53 | CTGACCGGAC | 2.4
54 | TTGAGGGAT | 0.978
55 | AATAGATGTA | 0.99
56 | TATTCAAAGG | 1.01
57 | TCTTGGCCGT | 0.98
58 | TATCCATACC | 1.11
59 | GCCCGCCGGG | 0.993
60 | TCGAGTATTT | 1
61 | CTGAGTCATT | 1
62 | TCACATACTG | 1.2
63 | ACTGCAACTC | 1.6
64 | GATTATTCGC | 1.04
65 | TGGGGGTACA | 1.01
66 | AGATTAAACG | 0.999
67 | GGCAGCGAGT | 1.02
68 | CCGGACGAAT | 1.25
69 | CTACGCGCCG | 1.11

Row | Sequence | switch fluorescence ratio
70 | GGATACGG | 0.947
71 | ACTATTCGTA | 1.01
72 | AAATTCTTCG | 1.04
73 | TGCGGGACGA | 1.02
74 | ATTGCTAAAG | 0.973
75 | TATAATAGAT | 0.986
76 | GACAAAGTTT | 1.01
77 | CAAAAGGGTT | 0.993
78 | ATATAACATG | 1.01
79 | AGTCCCCGCT | 1.44
80 | GGCCGCATCA | 1.11
81 | AGATAGGTAT | 0.963
82 | GTTTGTACAA | 0.971
83 | ATCAGAGGCT | 0.981
84 | CATTCGGTTC | 1.09
85 | CTCGTATATA | 1.02
86 | TCGAAAACGG | 0.976
87 | TATAGGATCC | 0.986
88 | TCTTAGGCCT | 1.01
89 | TCCTAAGTG | 1.04
90 | GGCAGAATGC | 0.993
91 | GGGTTATCGT | 0.982
92 | AGCCTTAGAA | 1.02

Row | Sequence | switch fluorescence ratio
93 | TTAGGTATGA | 1.01
94 | GATCACTGAT | 1.09
95 | TGGTGGGGCC | 1.01
96 | CGCTTAGAGA | 1.02
97 | GTAGTTCCCT | 1.02
98 | ACCCAGTACG | 1.2
99 | TAGACATTTT | 1.01
100 | ATCTCTGTTA | 0.964
101 | TACTGTACGA | 1.43
102 | TGCGTATCAT | 1.03
103 | CTTATCGCCT | 1.07
104 | TGACGGCAAT | 1.6
105 | GCTAACTTCC | 2.55
106 | CTGGTAGAGA | 0.998
107 | ACTTTAATGT | 0.993
108 | AGAATGTTCG | 0.915
109 | CCTAACTAG | 0.984
110 | CCAGCTCGCG | 0.965
111 | GAGCTTTAAG | 0.993
112 | ATAATTTCGC | 0.968
113 | GGATTTCCCA | 1.02
114 | GCGCGTTTTC | 1.04
115 | CCCAGAGTGT | 4.39

Row | Sequence | switch fluorescence ratio
116 | AGCAATCGTC | 2.31
117 | GAGTATATA | 1.02
118 | GGGCCCCGAT | 0.98
119 | CGGCATCAAT | 1.12
120 | TTAGAAGCAC | 1.18
121 | GAAGATTCAG | 1
122 | GGACGATCCC | 1.08
123 | CACTAATCTT | 1.02
124 | GATCTTCAAC | 0.994
125 | GCTCATTAAA | 0.991
126 | AGCTTGGCG | 1.03
127 | GAATGACGGT | 1.03
128 | CCGATACTGG | 1.2
129 | GCTTCCTCAT | 1.5
130 | TTGGAACACT | 1
131 | TGTTCAGA | 0.999
132 | GGATGTACCA | 0.993
133 | TTTGGGCAA | 1.15
134 | GTAGGTGATG | 1.02
135 | GATCGCCAGG | 1.03
136 | TGGCTATTA | 1.07
137 | TGTGAAGTCT | 1.03
138 | ACAGAGCTGG | 1.03

Row | Sequence | switch fluorescence ratio
139 | TCGTTTATAG | 1.02
140 | AGGTCCGGGA | 0.955
141 | TCAGACTCCT | 2.11
142 | AACGATTGAG | 1.05
143 | AGCCGGCTTC | 1.04
144 | CCCAACCCAG | 1.14
145 | GCCCGACCTC | 1.31
146 | GAACGCTGTT | 1.01
147 | ACTAGAAAAT | 1.01
148 | AAGATCATAG | 1.05
149 | AGGTTCTCAT | 0.964
150 | CGCCAGGCGG | 1.04
151 | TATCCAACAA | 1.05
152 | CACTGAAGGG | 1.02
153 | AGATGGTCTC | 0.975
154 | GCTCTAGTT | 1
155 | TTATTTTG | 0.956
156 | CCCACCGTCG | 1.07
157 | AAGACGGTAC | 1.48
